The source of these data is the supplement of paper PMC4723716.

Structures are written as SMILES. ± gives the uncertainty stated by the source. The full ranking holds about 9,900 compounds; the median of “viability index relative to DMSO control” is about 1, and the lowest 2% start at about 0.85. This is one part of the list.

The test system of this test is Plasmodium falciparum NF54 stage V gametocytes. As to the kind of experiment: viability index relative to DMSO control (fraction); higher = less gametocyte killing. To be noted: 2.5 µM, incubation time: 72 h. An outline of the steps: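 Compound at 2.5 µM was incubated for 72 hr at 37°C under low oxygen with P. falciparum NF54 stage V gametocytes (0.75% gametocytemia, 1.25% hematocrit, 10 µl, serum-free screening medium) in 1,536-well plates. Staining used 3 µl of 2.5 µM MitoTracker Red CMXRos plus 0.13% saponin for one to two hours, and red particles of 20–70 µm2 were counted in one imaged field per well. Each viability index is that count relative to the plate mean of solvent-only wells.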

Where [1] appears, read: library set: Broad Institute DOS.

For `CO[C@H]1CN(C)C(=O)c2ccc(NC(=O)c3cccc(F)c3)cc2OC[C@H](C)NC[C@H]1C`, the viability index under setting [1] was found to be 1.11 ± 0.11.

For the compound `Cc1noc(C)c1S(=O)(=O)N(C)C[C@H]1OCCCC[C@H](C)Oc2ccc(NS(=O)(=O)c3cn(C)cn3)cc2C(=O)N([C@@H](C)CO)C[C@@H]1C`, the viability index under setting [1] is 1.1 ± 0.12.

In turn, `COCC(=O)N(C[C@H]1N[C@H](CO)[C@@H]1c1ccc(-c2cncnc2)cc1)C(C)C` came in with a viability index under setting [1] of 1.03 ± 0.038.

For `CN1C(=O)c2cc(NC(=O)C3CCOCC3)ccc2OC[C@@H]2O[C@H](CC(=O)NCC3CCCCC3)CC[C@@H]21`, under setting [1], the viability index came to 1.12 ± 0.047.

For `CN1C(=O)c2cc(NC(=O)Nc3ccccc3F)ccc2OC[C@@H]2O[C@@H](CC(=O)NCCc3ccncc3)CC[C@H]21`, the viability index under setting [1] was determined as 0.957 ± 0.052.

In turn, `CO[C@H]1CN(C)C(=O)c2ccc(NC(C)=O)cc2OC[C@@H](C)N(C(=O)c2cnccn2)C[C@@H]1C` came in with a viability index under setting [1] of 0.949 ± 0.018.

In the case of `COCC(=O)N1C[C@H](C)[C@H](OC)CN(C)C(=O)c2ccc(NC(=O)Nc3cccc(F)c3)cc2OC[C@H]1C`, the viability index under setting [1] amounted to 1.01 ± 0.1.

`COCC(=O)N1[C@@H](C#N)[C@H](c2ccc(C#Cc3ccccc3F)cc2)[C@@H]1CO` had a viability index under setting [1] of 1.07 ± 0.019.

Compound `C[C@H]1CN([C@@H](C)CO)C(=O)CCCn2cc(nn2)CO[C@H]1CN(C)C(=O)Nc1cccc(C(F)(F)F)c1` displayed a viability index under setting [1] of 1.04 ± 0.052.

`C[C@H](CO)N1C[C@H](C)[C@H](CN(C)Cc2ccc(Cl)c(Cl)c2)Oc2ccc(NC(=O)CCCN(C)C)cc2C1=O` showed a viability index under setting [1] of 1.08 ± 0.071.

For `C[C@H](CO)N1C[C@H](C)[C@H](CN(C)S(C)(=O)=O)OCCCC[C@H](C)Oc2ccc(NC(=O)NC3CCCCC3)cc2C1=O`, under setting [1], the viability index is 1.15 ± 0.016.

`O=C(Cc1ccccn1)N1CC(=O)N2[C@H](C1)[C@H](c1ccc(C#CCC3CCCC3)cc1)[C@@H]2CO` displayed a viability index under setting [1] of 1.032 ± 0.0086.

For `COc1ccc(NC(=O)N(C)C[C@H]2OCc3cnnn3CCCC(=O)N([C@H](C)CO)C[C@H]2C)c(OC)c1`, the viability index under setting [1] was determined as 1.01 ± 0.021.

Turning to `O=C(C[C@@H]1CC[C@H]2[C@@H](COC[C@@H](O)CN2C(=O)c2ccncc2)O1)Nc1ccc(-c2ccccc2)cc1`, under setting [1], the viability index worked out at 1.11 ± 0.073.

In turn, `CCNC(=O)C[C@H]1CC[C@@H]2[C@H](COC[C@H](O)CN2C(=O)C2CCCC2)O1` yielded a viability index under setting [1] of 1 ± 0.12.

The compound `Cc1cccc(S(=O)(=O)N2C[C@@H](O)COC[C@@H]3O[C@H](CC(=O)Nc4ccccc4)CC[C@H]32)c1` came in with a viability index under setting [1] of 1.03 ± 0.046.

On to `CC(C)C[C@H]1COCn2nncc2CC[C@H](C)C(=O)N1`, for which the viability index under setting [1] is 1.06 ± 0.041.

`C[C@@H]1CN([C@H](C)CO)C(=O)Cc2cc(NC(=O)C3CCCCC3)ccc2O[C@H]1CN(C)Cc1ccc(Cl)c(Cl)c1` returned a viability index under setting [1] of 1.05 ± 0.11.

In turn, `Cc1noc(C)c1NC(=O)N(C)C[C@H]1OCc2ccccc2-c2c(n(C)c3ccccc23)C(=O)N([C@@H](C)CO)C[C@@H]1C` registered a viability index under setting [1] of 0.976 ± 0.099.

Consider `CCC(=O)N1CC(=O)N2[C@@H](CO)[C@@H](c3ccc(C#CCC(C)C)cc3)[C@@H]2C1`, for which the viability index under setting [1] is 1.04 ± 0.013.

With `C[C@H](CO)N1C[C@H](C)[C@H](CN(C)Cc2ccc3c(c2)OCO3)Oc2ccc(NS(=O)(=O)c3cn(C)cn3)cc2CC1=O`, the viability index under setting [1] is 1.03 ± 0.027.

In the case of `COc1ccc2c3c([C@H](CO)NC[C@]33CN(CC4CCOCC4)C3)n(C)c2c1`, the viability index under setting [1] is 1.01 ± 0.077.

In turn, `CO[C@@H]1CN(C)C(=O)c2cc(NS(=O)(=O)c3ccc(Cl)cc3)ccc2OC[C@@H](C)N(C(=O)NC(C)C)C[C@@H]1C` had a viability index under setting [1] of 1.04 ± 0.021.

Compound `O=C(C1CCCC1)N1[C@@H](CO)[C@@H](c2ccccc2)C12CN(Cc1ccc(F)cc1)C2` had a viability index under setting [1] of 1.11 ± 0.057.

The compound `CN(C)c1ccc2c(c1)[C@H]1C[C@@H](CC(=O)NCc3ccccn3)O[C@@H](CO)[C@H]1O2` showed a viability index under setting [1] of 1.01 ± 0.033.

Under setting [1], `COc1cccc(NC(=O)N2[C@H](CO)[C@H](c3ccccc3)[C@H]2CNCC(C)C)c1` returned a viability index of 1.1 ± 0.019.

The compound `COc1ccc2c3c([C@H](CO)N(C[C@]33CN(CC4CCOCC4)C3)S(C)(=O)=O)n(C)c2c1` yielded a viability index under setting [1] of 0.992 ± 0.023.

`C[C@@H](NC(=O)C[C@@H]1CC[C@@H]2[C@H](COC[C@@H](O)CN2C(=O)Nc2cccc(Cl)c2)O1)c1ccccc1`: the viability index under setting [1] was 1.05 ± 0.025.

In turn, `Cc1noc(C)c1NC(=O)Nc1ccc2c(c1)C(=O)N([C@@H](C)CO)C[C@@H](C)[C@@H](CN(C)S(=O)(=O)c1cccs1)OCCCC[C@@H](C)O2` had a viability index under setting [1] of 1.09 ± 0.064.

Regarding `COC(=O)[C@@H]1[C@@H](CO)[C@@H]2Cn3c(ccc(C4=CCCCC4)c3=O)[C@@H]2N1C(=O)c1ccccc1F`, under setting [1], the viability index amounted to 1.08 ± 0.049.

Regarding `O=C1CN(S(=O)(=O)Cc2ccccc2)C[C@@H]2[C@@H](c3ccc(C#Cc4ccccc4)cc3)[C@@H](CO)N12`, the viability index under setting [1] came out at 0.892 ± 0.061.

For `C[C@H](CO)N1C[C@H](C)[C@H](CN(C)Cc2ccc(Cl)c(Cl)c2)Oc2c(NS(=O)(=O)c3ccc(F)cc3)cccc2C1=O`, the viability index under setting [1] came to 1.01 ± 0.034.

Consider `O=C(C1CCCCC1)N1CC2(C1)[C@@H](c1ccccc1)[C@@H](CO)N2CCC(F)(F)F`, for which, under setting [1], the viability index was 1.1 ± 0.029.

`N#C[C@@H]1[C@H](c2ccccc2C2=CCCC2)[C@@H](CO)N1C(=O)NC1CCCCC1` displayed a viability index under setting [1] of 1.08 ± 0.013.

The compound `CS(=O)(=O)N1CC(=O)N2[C@H](CO)[C@@H](c3ccc(Br)cc3)[C@H]2C1` came in with a viability index under setting [1] of 0.99203 ± 8.3e-05.

As for `C[C@@H]1CN([C@H](C)CO)C(=O)CCCn2nncc2CO[C@H]1CN(C)CC1CCCCC1`, the viability index under setting [1] worked out at 1.113 ± 0.011.

In turn, `N#Cc1cccc(-c2ccc3c(c2)[C@@H]2[C@@H](CCN2C(=O)c2ccccc2F)[C@@H](CO)N3)c1` registered a viability index under setting [1] of 1.139 ± 0.011.

Turning to `Cc1noc(C)c1S(=O)(=O)N(C)C[C@H]1OCc2cn(nn2)CCCC(=O)N([C@@H](C)CO)C[C@H]1C`, under setting [1], the viability index worked out at 1.09 ± 0.018.

`CCCNC(=O)N1C[C@H]2[C@@H](c3ccccc31)[C@H](CO)N2Cc1cccc(OC)c1` yielded a viability index under setting [1] of 1.06 ± 0.026.

Consider `COc1ccc(S(=O)(=O)N(C)C[C@@H]2OCc3ccccc3-c3c(n(C)c4ccccc34)C(=O)N([C@@H](C)CO)C[C@@H]2C)cc1`, for which the viability index (library set: Broad Institute Blood Stage) was found to be 0.936 ± 0.044.

Under setting [1], `Cc1ccc(-c2ccccc2[C@@H]2[C@H](C#N)N(S(C)(=O)=O)[C@H]2CO)cc1` yielded a viability index of 0.998 ± 0.081.

For `Cn1cnc(S(=O)(=O)N[C@@H]2CC[C@@H](CC(=O)NCC3CCCCC3)O[C@@H]2CO)c1`, under setting [1], the viability index was 0.994 ± 0.011.

`COCCNC(=O)c1cc2c(c(-c3cccc(C4=CCCCC4)c3)n1)[C@H](CCO)N([S@@](=O)C(C)(C)C)C2` registered a viability index under setting [1] of 1.06 ± 0.027.

`CN(C)CC(=O)N1CC2(C1)[C@@H](c1ccccc1)[C@@H](CO)N2S(C)(=O)=O` had a viability index under setting [1] of 1.11 ± 0.018.

With `CO[C@@H]1CN(C)C(=O)c2ccc(NC(=O)C3CC3)cc2OC[C@@H](C)N(C(C)=O)C[C@@H]1C`, the viability index under setting [1] turned out to be 1.02 ± 0.042.
